Molecular target: human Clec9A on HL116-hClec9A cells (human, UniProt Q6UXN8 1-241)
Assay: cell-based or functional assay

Chain of UniProt Q6UXN8 (Q6UXN8 whole entry): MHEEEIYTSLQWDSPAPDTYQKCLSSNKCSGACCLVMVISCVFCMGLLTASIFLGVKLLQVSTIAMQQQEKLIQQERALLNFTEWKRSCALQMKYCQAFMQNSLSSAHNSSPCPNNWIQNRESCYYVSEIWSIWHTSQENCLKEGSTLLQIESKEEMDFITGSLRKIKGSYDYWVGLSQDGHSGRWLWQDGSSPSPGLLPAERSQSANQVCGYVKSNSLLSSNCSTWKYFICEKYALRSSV

B1: R1CHCL50-20*GGS-Fc3 + Fc4-20*GGS-IFNa1 (Fc fusion)
chain 1: QVQLVESGGGLVHPGGSLRLSCAASGSFSSINVMGWYRQAPGKERELVARITNLGLPNYADSVTGRFTISRDNAKNTVYLQMNSLKPEDTAVYYCYLVALKAEYWGQGTQVTVSSGGSGGSGGSGGSGGSGGSGGSGGSGGSGGSGGSGGSGGSGGSGGSGGSGGSGGSGGSGGSDKTHTCPPCPAPEAAGGPSVFLFPPKPKDTLMISRTPEVTCVVVDVSHEDPEVKFNWYVDGVEVHNAKTKPREEQYNSTYRVVSVLTVLHQDWLNGKEYKCQVSNKALPAPIEKTISKAKGQPREPQVCTLPPSRDELTKNQVSLSCAVKGFYPSDIAVEWESNGQPENNYKTTPPVLDSDGSFFLVSKLTVDKSRWQQGNVFSCSVMHEALHNHYTQKSLSLSPGK
chain 2: [letters of human IgG1 Fc with changes omitted]GGSGGSGGSGGSGGSGGSGGSGGSGGSGGSGGSGGSGGSGGSGGSGGSGGSGGSGGSGGSCDLPETHSLDNRRTLMLLAQMSRISPSSCLMDRHDFGFPQEEFDGNQFQKAPAISVLHELIQQIFNLFTTKDSSAAWDEDLLDKFCTELYQQLNDLEACVMQEERVGETPLMNADSILAVKKYFRRITLYLTEKKYSPCAWEVVRAEIMRSLSLSTNLQERLRRKE
EC50, luciferase reporter on HL116-hClec9A cells: 0.3 ng/mL
